From PubChem BioAssay AID1346428 (National Center for Advancing Translational Sciences (NCATS), 2018)
Where “and” joins values, the source holds several entries; their conditions need not be identical. Equal values may be shown once. Out of some 48,000 compounds screened, about 1,200 (2.5%) were called active. Roughly 2% stayed inconclusive and do not appear here.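 How the source made its calls: active means activation of at least 60% and not above a set upper limit (about 1 call in 100 departs from these limits); inconclusive means activation of 40% to 60%, or above that upper limit; inactive means activation under 40%.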 This is one part of the list.

Biological target: Probable G-protein coupled receptor 32 (Homo sapiens) (UniProt O75388)
Test: qHTS for Agonists of Human Resolvin D1 Receptor DRV1; further: 0% is about no effect
Conditions: CHO-K1 GPR32 beta-arrestin PathHunter luminescence, 90 min; at 76.9 µM; hits give high values; zero percent set by DMSO-only wells
Method in brief: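 Agonism was scored by beta-Gal fragment complementation (chemiluminescent read, 1 h detection at ambient temperature) reporting beta-arrestin binding to GPR32 in engineered CHO-K1 cells. Compound treatment lasted 90 min at 37 C, normalized to a DMSO basal control.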

Sequence of UniProt O75388 (O75388 whole entry, looked up): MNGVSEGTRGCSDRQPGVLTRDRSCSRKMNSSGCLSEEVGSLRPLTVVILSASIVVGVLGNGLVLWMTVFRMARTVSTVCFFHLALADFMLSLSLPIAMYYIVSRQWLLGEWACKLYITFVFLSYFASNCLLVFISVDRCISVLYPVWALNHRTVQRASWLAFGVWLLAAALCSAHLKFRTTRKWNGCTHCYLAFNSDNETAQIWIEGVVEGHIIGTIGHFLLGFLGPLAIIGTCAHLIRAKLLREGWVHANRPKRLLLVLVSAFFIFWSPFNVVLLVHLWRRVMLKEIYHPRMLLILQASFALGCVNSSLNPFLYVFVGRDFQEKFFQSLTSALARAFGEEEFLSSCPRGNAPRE

| SMILES | activation |
| --- | --- |
| Cc1cc(C)cc(NC(=O)CSc2oc(-c3ccccc3)nc2S(=O)(=O)c2ccccc2)c1 | inactive: -10.1% |
| N#Cc1c(C(F)(F)F)cc(-c2cccs2)nc1SCC(=O)Nc1ccccc1F | inactive: -13.7% |
| CCc1ccc(O)c(C(=O)c2cnc3cc(-c4ccc(C)cc4)nn3c2)c1 | inactive: -11% |
| Cc1cc(C)cc(NS(=O)(=O)c2ccc3[nH]cc(C(=O)NC4CCCCC4)c(=O)c3c2)c1 | active: 110% |
| CCn1cc(S(=O)(=O)c2ccccc2)c(=O)c2cc(F)c(N3CCCC3)cc21 | inactive: -5.26% |
| CCOc1ccc(-c2cc(C(=O)NCc3ccccc3Cl)c3ccccc3n2)cc1 | inactive: -22.1% |
| O=C1Cc2cc(CCN3CCN(c4nsc5ccccc45)CC3)c(Cl)cc2N1 | inactive: -29.3% and inactive: -103% |
| COc1ccc(OC)c(NC(=O)c2ccc(-c3nc(CSc4ccccc4)c(C)o3)cc2)c1 | inactive: 5.81% |
| CC(C)(C)C(=O)Cn1c(=O)n(CCCCCC(=O)NCc2ccc3c(c2)OCO3)c(=O)c2sccc21 | inactive: -28% |
| Cc1ccc(C(=O)CSc2nc3cc(C(=O)NC4CCCC4)ccc3c(=O)n2CC2CCCO2)cc1 (stereo unspecified) | inactive: -28.2% |
| COc1ccccc1CCNC(=O)c1ccc(NC(=O)N2CC(C)Sc3ccccc32)cc1 (stereo unspecified) | inactive: -19% |
| CCCCn1cc(S(=O)(=O)c2ccc(CC)cc2)c(=O)c2cc(F)c(N3CCCC(C)C3)cc21 (stereo unspecified) | inactive: -0.0605% |
| CSc1cccc(NS(=O)(=O)c2ccc3[nH]cc(C(=O)N4CCCC4)c(=O)c3c2)c1 | inactive: -1.67% |
| COc1cc(OC)c(NC(=O)c2c(C)nn(-c3ccc(C)cc3)c2-n2cccc2)cc1Cl | inactive: -8.84% |
| Cn1c(=O)n(C)c2cc(N3CCCCC3)c(NC(=O)c3ccc(Cl)cc3)cc21 | inactive: 2.35% |
| COc1ccc(C(=O)NCCn2cc(SCC(=O)Nc3ccccc3)c3ccccc32)cc1OC | inactive: 30.8% |
| CN1CCc2ccccc2Cc2[nH]c3ccccc3c2CC1 | inactive: -14.2% |
| Cc1cc(C)c(S(=O)(=O)Nc2cc(-c3cn4ccccc4n3)ccc2C)cc1C | inactive: 13.6% |
| CCN1CCN(C(=O)c2ccc3c(c2)N(Cc2ccc(Cl)cc2)C(=O)c2ccccc2S3(=O)=O)CC1 | inactive: -9.64% |
| Cc1cc(=O)n2c(C(=O)Nc3ccc(C)c(Cl)c3)c(C(=O)Nc3ccccc3)sc2n1 | inactive: -0.17% |
| COc1ccc(C(=O)N(Cc2sccc2C)C2CCS(=O)(=O)C2)cc1Cl (stereo unspecified) | inactive: -19.2% |
| O=C(O)CCC(=O)N1CCCC1C(=O)O (stereo unspecified) | inactive: -9.71% |
| Cc1cccc(N2CCN(C(=O)C3CCN(S(=O)(=O)c4c(C)noc4/C=C/c4ccccc4F)CC3)CC2)c1C | inactive: -4.58% |
| O=C(Cn1ncc2c([nH]c3ccccc32)c1=O)Nc1cc(F)ccc1F | inactive: -12.2% |
| Cc1ccc(C(=O)c2sc(Nc3ccccc3F)c(S(=O)(=O)c3ccccc3)c2N)c(C)c1 | inactive: -21.9% |
| O=C(NCc1ccc2c(c1)OCO2)c1ccc2c(c1)N(Cc1cccc(Cl)c1)C(=O)c1ccccc1S2 | inactive: -26.5% |

| SMILES | activation |
| --- | --- |
| COc1c(Cl)cc(C(=O)Nc2cccc(-c3nc4ccccc4[nH]3)c2)cc1Cl | active: 106% |
| CC(=O)c1ccc(NC2=NS(=O)(=O)c3ccccc32)cc1 | inactive: -11.8% |
| O=C(Nc1nnc(S(=O)(=O)N2CCCCCC2)s1)c1ccc(Br)cc1 | inactive: 18.4% |
| CCOC(=O)c1c(Nc2cccc(O)c2)nnc(-c2ccccc2)c1-c1ccccc1 | inactive: 1.79% |
| O=C(NCc1ccc(F)cc1)c1ccc(CSc2nc3ccncc3n2Cc2ccc(F)cc2)cc1 | inactive: -17.2% |
| Cc1cc(C)c(Cn2c3ccccc3c3cnn(CC(=O)NCCc4ccccc4)c(=O)c32)c(C)c1 | inactive: -23.1% |
| Cc1ccc(Cl)cc1N1CCN(C(=O)CN2C(=O)COc3ccc(S(=O)(=O)N4CCOCC4)cc32)CC1 | inactive: -7.15% |
| CCc1cccc(C)c1NS(=O)(=O)c1c(C(=O)N2CCCCCC2)c(C)n(C)c1C | inactive: -23.8% |
| COc1ccc(Cl)cc1NC(=O)Cn1nnc2sc3c(c2c1=O)CCC(C(C)(C)C)C3 (stereo unspecified) | inactive: -7.3% |
| COc1cc(Cl)c(C)cc1NC(=O)CCCN1C(=O)C(c2ccccc2)Oc2cccnc21 (stereo unspecified) | inactive: -5.5% |
| COCCNC(=O)Cn1c(=O)n(Cc2ccc(C(=O)NCCc3ccc(OC)c(OC)c3)cc2)c(=O)c2ccccc21 | inactive: 5.55% |
| O=C(CSc1nc2ccccc2nc1Cc1ccc(F)cc1)Nc1ccc2c(c1)OCO2 | inactive: -5.61% |
| COc1ccc(-n2c3c(c(=O)[nH]c2=O)C(NC(C)=O)(C(F)(F)F)C(=O)N3)cc1 (stereo unspecified) | inactive: 5.45% |
| Cc1cccc(Oc2nc3ccccn3c(=O)c2/C=C(\C#N)c2nc3ccccc3s2)c1C | inactive: 13.3% |
| COc1ccc(NC(=O)C2CCCN(S(=O)(=O)c3cn(C)cn3)C2)cc1Cl (stereo unspecified) | inactive: -5.01% |
| CCOc1ccccc1C1CC(=O)NC(C)=C1C(=O)OC1CCCCCC1 (stereo unspecified) | inactive: 39.2% |
| Cc1ccc(NC(=O)CSc2nccn2C2CCCC2)cc1 | inactive: -10% |
| COc1ccc(CCNC(=O)c2ccc3c(c2)CCN3S(=O)(=O)c2ccc(Cl)cc2)cc1 | inactive: -4.14% |
| O=C(NCCN1CCN(c2ccccc2F)CC1)C1COc2ccccc2C1 (stereo unspecified) | inactive: -11% |
| CC(C)Cn1c(=O)c2sccc2n2c(CCCC(=O)NCC(C)c3ccccc3)nnc12 (stereo unspecified) | inactive: 11.8% |
| COc1cccc(-c2ccc3c(N)c(C(=O)Nc4ccc(Cl)cc4F)sc3n2)c1 | inactive: 39.3% |
| CCc1ccccc1NC(=O)Cc1ccc(-n2c(C)nc3cccnc32)cc1 | inactive: 4.93% |
| COc1ccc(OC)c(NC(=O)Cc2c(C(=O)O)[nH]c3ccc(Cl)cc23)c1 | inactive: -4.85% |
| Cc1ccc(C2=Nc3ccccc3N(CC(=O)NCc3ccc(Cl)cc3)C(=O)C2)cc1C | inactive: -8.04% |
| COc1ccc(CNC(=O)c2ccc3c(c2)N(Cc2ccccc2F)C(=O)c2ccccc2S3=O)cc1 (stereo unspecified) | inactive: -19.6% |
